Measurements published in article PMC12528421 (Nature Communications, 2025).

Target: T1, Flag-AS160 (human, UniProt O60343-1 1-1298)
T1 sequence (looked up): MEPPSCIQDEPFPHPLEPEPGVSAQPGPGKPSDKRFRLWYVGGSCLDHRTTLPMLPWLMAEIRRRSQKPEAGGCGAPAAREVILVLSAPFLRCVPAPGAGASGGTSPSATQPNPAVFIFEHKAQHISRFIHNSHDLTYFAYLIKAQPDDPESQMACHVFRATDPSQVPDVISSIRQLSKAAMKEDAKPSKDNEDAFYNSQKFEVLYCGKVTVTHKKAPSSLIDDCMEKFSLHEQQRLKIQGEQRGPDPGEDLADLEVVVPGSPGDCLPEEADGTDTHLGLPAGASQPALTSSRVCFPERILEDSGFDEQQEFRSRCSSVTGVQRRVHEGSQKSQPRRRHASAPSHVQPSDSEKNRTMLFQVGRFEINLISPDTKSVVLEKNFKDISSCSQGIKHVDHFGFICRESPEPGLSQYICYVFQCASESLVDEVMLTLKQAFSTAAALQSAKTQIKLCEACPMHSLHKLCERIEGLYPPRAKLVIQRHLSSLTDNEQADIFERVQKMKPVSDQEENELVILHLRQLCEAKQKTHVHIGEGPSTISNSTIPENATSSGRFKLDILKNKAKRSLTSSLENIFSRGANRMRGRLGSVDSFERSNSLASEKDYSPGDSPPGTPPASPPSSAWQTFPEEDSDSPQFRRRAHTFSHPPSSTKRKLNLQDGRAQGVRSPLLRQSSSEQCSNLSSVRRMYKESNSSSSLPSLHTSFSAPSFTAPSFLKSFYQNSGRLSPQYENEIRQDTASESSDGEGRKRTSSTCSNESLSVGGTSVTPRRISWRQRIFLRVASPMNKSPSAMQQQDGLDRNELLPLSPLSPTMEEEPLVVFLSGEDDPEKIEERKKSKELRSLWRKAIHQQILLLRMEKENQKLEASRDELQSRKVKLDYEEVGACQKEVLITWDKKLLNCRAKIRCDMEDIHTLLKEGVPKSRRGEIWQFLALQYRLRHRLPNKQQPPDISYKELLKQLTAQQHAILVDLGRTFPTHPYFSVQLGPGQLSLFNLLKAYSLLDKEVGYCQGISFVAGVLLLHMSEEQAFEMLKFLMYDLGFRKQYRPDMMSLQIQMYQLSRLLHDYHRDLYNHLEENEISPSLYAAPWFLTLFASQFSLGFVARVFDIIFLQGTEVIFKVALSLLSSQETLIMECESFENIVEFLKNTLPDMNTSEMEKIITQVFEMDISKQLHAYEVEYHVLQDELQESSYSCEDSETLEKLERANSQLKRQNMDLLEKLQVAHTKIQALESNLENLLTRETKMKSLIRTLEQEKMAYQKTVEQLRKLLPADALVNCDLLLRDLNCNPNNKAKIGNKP
Test: pull-down

binding result: binds
B1: GST-STAT3 (natural protein)
chain: not shown
